Measurements reported in ChEMBL document CHEMBL1201862, “PubChem BioAssay data set” (2004).
“And” between values parts separate entries of the source, which are not always exact repeats. Equal entries are not always repeated.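 All cell lines were grown in 96-well plates and treated with compound for 48 hours. GI50 marks 50% less growth.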 The source made the active and inactive calls. Cut-off read from the data, not from the text of the source: active = GI50 up to about 1.1 µM and inactive = higher.

These molecules were tested on NCI-H322M (assay: DTP human tumour cell line panel, 48 h).

| SMILES | GI50 |
| --- | --- |
| O=c1ccc(=O)n(-c2ccccc2)[nH]1 | inactive: > 100 µM |
| CN(CC(=O)O)Cc1oc(CO)cc(=O)c1O | inactive: > 100 µM |
| NNc1nc2ccccc2s1 | inactive: > 100 µM |
| Cc1cccc(C(O)c2ccncc2)c1O (stereo not drawn) | inactive: > 100 µM |
| Nc1nnc2n1C(=O)C(C1(C3=Nc4nnc(N)n4C3=O)Cc3ccccc3C1=O)=N2 | inactive: > 100 µM |
| COC(=O)Cc1ccc2c(cnn2-c2ccccc2)c1OC | inactive: > 10 µM |
| CC(=O)Nc1ccc2c3c(cc(O)c2c1)N(C(=O)CCCCCC(=O)Nc1ccc2c4c(cc(O)c2c1)N(C(=O)OC(C)(C)C)CC4CCl)CC3CCl (stereo not drawn) | inactive: 8.47 µM |
| O=C(O)C1CCCCN1C(=O)c1ccccc1 (stereo not drawn) | inactive: > 100 µM |
| CC1=NN(C(=O)CC(=O)Nc2cccc(C)c2)C(=O)C1/N=N/c1ccc(C(=O)O)cc1 (stereo not drawn) | inactive: > 100 µM |
| CNC(=O)OCC1=C(COC(=O)NC)CN(c2ccc(OC)cc2)C1 | inactive: > 100 µM |
| COc1ccc(/N=C(\C)c2ccncc2)cc1 | inactive: > 100 µM |
| CC(C)CCC1CC2C(=O)N(c3ccccc3)C(=O)C2c2[nH]c3ccccc3c21 (stereo not drawn) | active: 0.518 µM |
| COc1ccc(/N=N/C(C(=O)c2ccccc2)C(=O)c2ccccc2)cc1 | inactive: 4.07 µM |
| FC(F)(F)c1ccc2c(c1)nc1n2C(c2c(Cl)cccc2Cl)SC1 (stereo not drawn) | inactive: 19.3 µM |
| C=C1C(=O)OC2CC1C(OC(C)=O)C/C(C)=C/CC/C(C)=C\CCC2(C)O (stereo not drawn) | inactive: 15.2 µM and inactive: 13.6 µM |
| O=C1C[C@@H](C(=O)OCc2ccccc2)NC(=O)C[C@@H](C(=O)OCc2ccccc2)NC(=O)C[C@@H](C(=O)OCc2ccccc2)N1 | inactive: > 100 µM |
| C=C(C)C(=O)[C@@]12C(=O)[C@@H](C)CC[C@H]1[C@H](C)C[C@@H]2C=C(C)C | inactive: 33.6 µM |
| CC(C)C(Sc1nc(-c2ccccc2)c(-c2ccccc2)[nH]1)C(=O)N/N=C/c1ccc(Cl)cc1 (stereo not drawn) | inactive: 22.3 µM |
| Nc1nc(N)c2nc(CNc3ccc(C(=O)NC(CCC(=O)O)C(=O)O)cc3F)cnc2n1 (stereo not drawn) | inactive: > 100 µM |
| N#CC(c1ccc(Cl)cc1)c1c(=O)[nH]c2ccc(N)cc2[n+]1[O-] (stereo not drawn) | inactive: > 100 µM |
| N#CN=C(NCc1ccccc1)NCc1ccccc1 | inactive: > 100 µM |
| CC1(C)OC[C@@H]([C@H](O)C2C=CC(=O)S2)O1 (stereo partly drawn) | inactive: 33.7 µM |
| O=C(O)/C=C/c1nc2ccccc2c(=O)o1 | inactive: > 100 µM |
| Clc1cc2c(c(CSC3=NCN(CC4CC4)CN3)c1)OCOC2 | inactive: 25.2 µM |

| SMILES | GI50 |
| --- | --- |
| CCOC(=O)c1oc2c(OC)cc(Cl)c3c2c1CCC3 | inactive: > 100 µM |
| CCCCC#COS(=O)(=O)c1ccc(C)cc1 | inactive: > 100 µM |
| CCOC(=O)C1(C/C=C\CBr)CCCCCCC1=O (stereo not drawn) | inactive: > 100 µM |
| Cc1ccc(Nc2nc(NNC(=O)Cc3ccccc3)nc(NNC(=O)c3ccncc3)n2)cc1 | inactive: > 10 µM |
| COC(OC)c1cccc2c1C(=O)CCC1(O)c3ccccc3C1C2 (stereo not drawn) | inactive: > 100 µM |
| Cc1cccc(C2SCc3nc4ccccc4n32)c1 (stereo not drawn) | inactive: 45.8 µM |
| CN(C)c1ccc(C2CC(C)(O)Oc3cc4c(cc32)OCO4)cc1 (stereo not drawn) | inactive: 92 µM |
| O=C(Nc1cccc(F)c1)c1cc2ccc(O)cc2o/c1=N\c1ccccc1F | inactive: 2.29 µM |
| CN(C)Cc1cc(/N=N/c2ccc(Cl)cc2)cc(CN(C)C)c1O | inactive: 10.8 µM |
| O=C(O)/C(Cl)=C(/Cl)C(=O)Nc1cccc(Cl)c1 | inactive: 54.5 µM |
| CC(=O)N1N=C(c2ccc3ccccc3c2O)CC1c1cccs1 (stereo not drawn) | inactive: 16.2 µM |
| COc1ccc(-c2cc(-c3ccc(Cl)cc3)n(C3OC(CO)C(O)C(O)C3O)c(=S)c2C#N)cc1 (stereo not drawn) | inactive: > 100 µM |
| C/C(=N\N=C(\N)OB(F)F)c1ccccn1 | inactive: > 100 µM |
| C/C(=N\NC(=S)NC(C)C)c1nc2cccnc2[nH]1 | inactive: 31 µM |
| [O-][S+](Cc1ccccn1)c1nc2ccccc2nc1-c1ccccc1 (stereo not drawn) | inactive: 42.4 µM |
| CCOC(=O)C#Cc1ccc([N+](=O)[O-])cc1 | active: 0.849 µM |
| CC1(C)C(c2ccccc2)=NN(O)c2ccccc21 | inactive: > 100 µM |
| COc1cc2c(cc1OC)C1(c3ccccc3)ON=C(c3ccccc3)N1CS2 (stereo not drawn) | inactive: > 100 µM |
| Cc1cn([C@H]2CN(O)C[C@@H](CO)O2)c(=O)[nH]c1=O | inactive: > 100 µM |
| N#CCc1nnc(N)o1 | inactive: > 100 µM |
| CC(C)(C)OC(=O)c1cccnc1/C=N/O | inactive: > 100 µM |
| CCC(=O)N1NC(=O)C(CC)(CC)C1=O | inactive: > 100 µM |
| Cc1ccc(C(=O)/C=C(\O)C(=O)NN=C(c2ccccc2)c2ccccc2)cc1 | inactive: > 100 µM |
| O=C1NC(=S)N(c2ccccc2)C1=O | inactive: > 100 µM |

| SMILES | GI50 |
| --- | --- |
| c1ccc2c(c1)CCC/C2=N\OCC1CO1 (stereo not drawn) | inactive: > 100 µM |
| Cc1ccc(N2C(N)=C(C#N)C(C#N)(C#N)C2c2ccccc2)cc1 (stereo not drawn) | inactive: 18.3 µM |
| S=c1scc(-c2ccc(Cl)cc2)n1OC1CCCC1 | inactive: 49.2 µM |
| C[C@@H]1C[C@@H]2C(=O)N(c3ccccc3)C(=O)[C@@H]2c2[nH]c3ccc(Br)cc3c21 | inactive: 49.7 µM |
| O=C(CC(=O)Nc1cccc(C(=O)O)c1)Nc1cccc(C(=O)O)c1 | inactive: > 100 µM |
| O=C(Nc1nc(C23CC4CC(CC(C4)C2)C3)cs1)c1cc2ccc(O)cc2oc1=O | inactive: 17.1 µM |
| C[C@]12Cc3cn[nH]c3C(=O)C1CC[C@@H]1C2CC[C@@]2(C)C1CC[C@]2(C)O (stereo partly drawn) | inactive: > 100 µM |
| COC(=O)C(C(=O)C(=O)Nc1nnc(S)[nH]1)c1csc(-n2nc(-c3ccccc3)cc2-c2ccccc2)n1 (stereo not drawn) | inactive: > 100 µM |
| CN(C)C(=S)/N=c1\ssc(=S)n1Cc1ccco1 | inactive: 5.97 µM |
| N#CCCC1(CCC#N)CCCCCCC(CCC#N)(CCC#N)C(O)C1O (stereo not drawn) | inactive: > 100 µM |
| COC(=O)CN1Cc2cc(C)cc(c2O)CN(CC(=O)OC)Cc2cc(C)cc(c2O)CN(CC(=O)OC)Cc2cc(C)cc(c2O)CN(CC(=O)OC)Cc2cc(C)cc(c2O)C1 | inactive: 8.02 µM |
| O=c1[nH]cc(COCCO)c(=O)[nH]1 | inactive: > 100 µM |
| CCCCOP1(=O)C=CC(Cl)=C(C)C1 (stereo not drawn) | inactive: > 100 µM |
| CCCCc1c(O)nc(Nc2nc3ccccc3[nH]2)[nH]c1=O | inactive: > 100 µM |
| Cc1cc2c(cc1C)[n+]([O-])c(C(=O)CC(=O)C(=O)Nc1c(C(C)C)cccc1C(C)C)c(C)[n+]2[O-] | inactive: > 100 µM |
| N#Cc1c(-c2ccc([N+](=O)[O-])cc2)cc(-c2ccc(Nc3ccnc4cc(C(F)(F)F)ccc34)cc2)nc1N | inactive: 30.6 µM |
| COC(=O)N/N=C(\C)c1sc(-c2nc(C)c(/C(C)=N/NC(=O)OC)s2)nc1C | inactive: > 100 µM |
| CN(C)c1n/c(=N/c2ccc(/N=c3\nc(N(C)C)ss3)cc2)ss1 | inactive: 61.1 µM |
| CO/N=C(\C)c1ccc(Nc2nc3ccccc3c3occc23)cc1 | inactive: 15.7 µM |
| CC(=O)OC1CCn2c1nc1cc([N+](=O)[O-])c(C)cc12 (stereo not drawn) | inactive: > 100 µM |
| Cc1nnc(N)s/c1=N/O | inactive: > 100 µM |
| COC(=O)C12CCCN1CCC2 | inactive: > 100 µM |
| COc1ccc(C(N)=O)c(OC)c1OCc1ccccc1 | inactive: > 100 µM |
| O=[N+]([O-])c1ccc2[nH]nc(OCc3ccccn3)c2c1 | inactive: > 100 µM |

| SMILES | GI50 |
| --- | --- |
| CC(C)C(NCc1c(O)ccc2c(-c3ccccc3)cc(=O)oc12)C(=O)O (stereo not drawn) | inactive: > 100 µM |
| COc1ccc(N(C(=O)OC(C)(C)C)[C@@H]2C(C)=C[C@H]([S@@+]([O-])c3ccc(C)cc3)[C@@H]3C(=O)N(C)C(=O)[C@@H]32)cc1 | inactive: 20 µM |
| N#Cc1cccc(N2C(=O)c3ccc(C(=O)c4ccc5c(c4)C(=O)N(c4cccc(C#N)c4)C5=O)cc3C2=O)c1 | inactive: > 100 µM |
| Cc1ccc(C(=O)Cn2c(C(=O)/C=C/c3cccs3)nc3ccccc32)cc1 | inactive: 38.6 µM |
| N=c1sc(N2CCOCC2)nn1CC(=O)c1ccccc1 | inactive: > 100 µM |
| O=C(O)CCC(NC(=O)c1ccc(Nc2nc3ccccc3nc2-c2cccs2)cc1)C(=O)O (stereo not drawn) | inactive: > 100 µM |
| CC12OC1(C)C1C(=O)OCC1C2=O (stereo not drawn) | inactive: > 100 µM |
| C=CCOC(=O)C1C2OC3(C(C(=O)OC)=C2C(=O)OC)c2ccccc2CCC13 (stereo not drawn) | inactive: > 10 µM |
| CN(C)CCN1CCc2c([nH]c3ccccc23)C1c1cccnc1 (stereo not drawn) | inactive: > 100 µM |
| CCOC(=O)n1ccc2c(C(=O)OC)c(C(=O)OC)cc(/C(=C/C(=O)OC)C(=O)OC)c21 | inactive: > 100 µM |
| C=CCCCCCCCCCP(=O)(c1ccccc1)c1ccc2c(c1)OCCOCCOCCOCCO2 (stereo not drawn) | inactive: 15.1 µM |
| O=P1(C(O)/C=C/c2ccccc2)N(Cc2ccccc2)[C@@H]2CCCC[C@H]2N1Cc1ccccc1 (stereo partly drawn) | inactive: 9.91 µM |
| O=C(O)c1cc2ccccc2c(S(=O)(=O)O)c1O | inactive: > 100 µM |
| COc1cccc(N2C(=O)C3C4C=C5c6ccccc6N(c6ccccc6)C5(C3C2=O)[C@H]2C(=O)N(c3cccc(OC)c3)C(=O)[C@@H]42)c1 (stereo partly drawn) | inactive: > 100 µM |
| COc1cc(C2c3cc4c(cc3[C@@H](Nc3ccc(N5CCOCC5)cc3)C3COC(=O)[C@H]23)OCO4)cc(OC)c1O (stereo partly drawn) | inactive: 4.32 µM |
| O=S(=O)(c1ccccc1)N1N=C2c3ccccc3CCC[C@H]2C1c1ccccc1 (stereo partly drawn) | inactive: > 100 µM |
| N#C/C(=C\c1cc(Br)c(O)c(Br)c1)c1ccccn1 | inactive: 93.1 µM |
| COc1ccc(CC2c3cc(OC)c(OC)c(OC)c3CC[N+]2(C)C)cc1Oc1ccc(CC2c3cc4c(c(OC)c3CC[N+]2(C)C)OCO4)cc1 (stereo not drawn) | inactive: > 100 µM |
| C=C(C)[C@@H]1CC[C@]2(C(=O)OC3OC(COC4OC(CO)C(OC5OC(C)C(O)C(O)C5O)C(O)C4O)C(O)C(O)C3O)CC[C@]3(C)[C@H](CC[C@@H]4[C@@]5(C)CC[C@H](O)[C@@](C)(CO)[C@@H]5CC[C@]43C)[C@@H]12 (stereo partly drawn) | inactive: 4.51 µM |
| Oc1[nH]c(Nc2cccc(Br)c2)nc2ncnc1-2 | inactive: > 100 µM |
| CC(C)(C)C(=O)N1CCN(C=O)C1=S | inactive: > 100 µM |
